± gives the uncertainty stated by the source. The sequences are guide strands of siRNAs; only the seed at positions 2 to 7 varies.
Tests used:
[1] = test system: 3LL; assay: cell viability relative to siNT1 control; higher = less toxic; settings: concentration: 10 nM; 96 h; Mus musculus;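 also: Luminescence-based viability of cells reverse transfected in 384-well plates with lipid-complexed siRNAs built on a non-toxic 19mer backbone whose passenger strand carries 2′-O-methyl groups at positions 1 and 2, triplicates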
Description: (§1)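 Arrayed screen of 4096 siRNA duplexes, each carrying one of all possible 6mer seeds at guide-strand positions 2-7 in a fixed neutral 19mer scaffold (constant flanks: U at position 1, then ACAUGUAAACCA, plus a 3' AA overhang). The passenger strand is 2'-O-methylated at positions 1-2 so only the guide strand loads into RISC. Duplexes were reverse-transfected at 10 nM with RNAiMAX in triplicate in 384-well plates; viability was read by CellTiter-Glo ATP content 96 h after transfection. Values are % viability normalised to lipid-only wells (HeyA8, H460, M565) or to siNT1 (3LL).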

[2] = test system: H460; assay: cell viability relative to lipid-only control; HeyA8 human ovarian and H460 human lung cancer; M565 mouse liver and 3LL mouse lung cancer; siNT1 is a non-toxic control siRNA; higher = less toxic; settings: concentration: 10 nM; 96 h; Homo sapiens
Description: as §1

[3] = test system: HeyA8; assay: as above; settings: concentration: 10 nM; 96 h; Homo sapiens
Description: as §1

[4] = test system: M565; assay: as above; settings: concentration: 10 nM; 96 h; Mus musculus
Description: as §1
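For cell viability relative to lipid-only control in this document: reverse lipid transfection in 384-well plates, in triplicate, of duplexes on a non-toxic 19mer backbone with passenger strand 2′-O-methylated at positions 1 and 2, luminescence viability read-out.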

Row | Sequence | cell viability [1] | cell viability [2] | cell viability [3] | cell viability [4]
1 | UAGCUCCACAUGUAAACCAAA | 51.6 ± 2.9% | 43 ± 0.56% | 38.5 ± 3.5% | 23.8 ± 6.5%
2 | UAGCUCGACAUGUAAACCAAA | 69.2 ± 5.4% | 88.5 ± 10% | 79.3 ± 11% | 57.8 ± 6.8%
3 | UAGCUCUACAUGUAAACCAAA | 34.7 ± 2.4% | 42.6 ± 0.9% | 53.2 ± 4.4% | 29.9 ± 2.4%
4 | UAGCUGAACAUGUAAACCAAA | 57.3 ± 11% | 79.8 ± 22% | 64.5 ± 7.7% | 58.9 ± 5.2%
5 | UAGCUGCACAUGUAAACCAAA | 9.97 ± 2.4% | 37.7 ± 6.8% | 7.09 ± 1.3% | 6.59 ± 1.2%
6 | UAGCUGGACAUGUAAACCAAA | 11.6 ± 0.7% | 15.4 ± 1.8% | 3.21 ± 0.14% | 14.8 ± 3.7%
7 | UAGCUGUACAUGUAAACCAAA | 23 ± 6% | 72.6 ± 9.7% | 33.6 ± 4% | 15.2 ± 2.4%
8 | UAGCUUAACAUGUAAACCAAA | 87.8 ± 12% | 81.8 ± 24% | 84.2 ± 11% | 75.8 ± 11%
9 | UAGCUUCACAUGUAAACCAAA | 32.1 ± 5.7% | 57.5 ± 12% | 22.2 ± 1.6% | 8.01 ± 0.63%
10 | UAGCUUGACAUGUAAACCAAA | 58.7 ± 7% | 69 ± 12% | 57.1 ± 3.3% | 59.1 ± 10%
11 | UAGCUUUACAUGUAAACCAAA | 83.1 ± 2.2% | 66.2 ± 9.3% | 40.6 ± 1.7% | 48.4 ± 14%
12 | UAGGAAAACAUGUAAACCAAA | 88.1 ± 14% | 61.7 ± 7.3% | 87.8 ± 10% | 63.7 ± 4.7%
13 | UAGGAACACAUGUAAACCAAA | 40.4 ± 6.4% | 80.1 ± 6.3% | 57.3 ± 8.7% | 30.6 ± 1.2%
14 | UAGGAAGACAUGUAAACCAAA | 78.5 ± 12% | 62.7 ± 6.3% | 68.4 ± 5.7% | 19.9 ± 1.4%
15 | UAGGAAUACAUGUAAACCAAA | 92.2 ± 17% | 59.8 ± 12% | 69.3 ± 7.7% | 53.3 ± 9.7%
16 | UAGGACAACAUGUAAACCAAA | 87.1 ± 3% | 61.1 ± 4.1% | 67.6 ± 6.4% | 71.2 ± 4.1%
17 | UAGGACCACAUGUAAACCAAA | 27.5 ± 1.5% | 63.4 ± 5.8% | 77.9 ± 6.1% | 23.8 ± 4.9%
18 | UAGGACGACAUGUAAACCAAA | 76.7 ± 7.3% | 82.2 ± 4.8% | 76.8 ± 14% | 61.8 ± 10%
19 | UAGGACUACAUGUAAACCAAA | 28.3 ± 8.2% | 50.2 ± 11% | 59.5 ± 6.1% | 30.3 ± 6.5%
20 | UAGGAGAACAUGUAAACCAAA | 82.2 ± 2.9% | 59.2 ± 5.4% | 60.5 ± 12% | 30.6 ± 10%
21 | UAGGAGCACAUGUAAACCAAA | 9.09 ± 1% | 13.3 ± 0.35% | 11.7 ± 1.2% | 7.53 ± 0.46%
22 | UAGGAGGACAUGUAAACCAAA | 5.33 ± 2% | 43.2 ± 2.2% | 7.04 ± 0.11% | 10.5 ± 2.1%

Row | Sequence | cell viability [1] | cell viability [2] | cell viability [3] | cell viability [4]
23 | UAGGAGUACAUGUAAACCAAA | 61.5 ± 11% | 25.7 ± 5.8% | 15.2 ± 0.34% | 14 ± 2.5%
24 | UAGGAUAACAUGUAAACCAAA | 84.5 ± 13% | 84.4 ± 13% | 84.3 ± 6.8% | 66 ± 8.8%
25 | UAGGAUCACAUGUAAACCAAA | 62.7 ± 12% | 34.8 ± 0.59% | 13.8 ± 2% | 66.9 ± 5.8%
26 | UAGGAUGACAUGUAAACCAAA | 81.8 ± 0.93% | 59.4 ± 3% | 78.3 ± 11% | 34.5 ± 7.4%
27 | UAGGAUUACAUGUAAACCAAA | 72.6 ± 13% | 54.9 ± 11% | 58.9 ± 7.8% | 15.4 ± 2.5%
28 | UAGGCAAACAUGUAAACCAAA | 64.7 ± 11% | 59.4 ± 6% | 69.3 ± 9.5% | 14.8 ± 2.1%
29 | UAGGCACACAUGUAAACCAAA | 30.6 ± 2.9% | 42.7 ± 1.3% | 20.6 ± 3.3% | 5.67 ± 0.3%
30 | UAGGCAGACAUGUAAACCAAA | 76.8 ± 14% | 52.6 ± 3.8% | 31.6 ± 2.6% | 18.2 ± 2.8%
31 | UAGGCAUACAUGUAAACCAAA | 23 ± 8% | 54.3 ± 4.9% | 18.6 ± 2.9% | 4.6 ± 0.94%
32 | UAGGCCAACAUGUAAACCAAA | 70.3 ± 5.9% | 62.6 ± 8% | 48.8 ± 0.54% | 15.1 ± 1.5%
33 | UAGGCCCACAUGUAAACCAAA | 20.8 ± 5.5% | 54.9 ± 9.2% | 51.3 ± 3.2% | 16.2 ± 2.9%
34 | UAGGCCGACAUGUAAACCAAA | 74.2 ± 1.9% | 53.5 ± 7.4% | 53 ± 6.7% | 7.61 ± 2.8%
35 | UAGGCCUACAUGUAAACCAAA | 34.9 ± 6.8% | 56.8 ± 7.3% | 29.7 ± 2.2% | 5.72 ± 1.4%
36 | UAGGCGAACAUGUAAACCAAA | 89.4 ± 14% | 77.6 ± 19% | 71.2 ± 8.1% | 26.9 ± 2.6%
37 | UAGGCGCACAUGUAAACCAAA | 16.7 ± 3.2% | 27.2 ± 7.4% | 24.7 ± 2.6% | 9.69 ± 2.9%
38 | UAGGCGGACAUGUAAACCAAA | 44 ± 2.2% | 65.4 ± 9.4% | 36 ± 3.4% | 14.2 ± 4.6%
39 | UAGGCGUACAUGUAAACCAAA | 42.9 ± 12% | 62 ± 8.8% | 45.8 ± 2.7% | 12.9 ± 3.1%
40 | UAGGCUAACAUGUAAACCAAA | 81.8 ± 10% | 69.4 ± 13% | 62.6 ± 4.8% | 40.5 ± 1.2%
41 | UAGGCUCACAUGUAAACCAAA | 8.34 ± 3.5% | 34.1 ± 8.5% | 4.88 ± 0.93% | 7.31 ± 2.4%
42 | UAGGCUGACAUGUAAACCAAA | 79.4 ± 14% | 71.4 ± 3.4% | 33.6 ± 4.8% | 13.1 ± 1.4%
43 | UAGGCUUACAUGUAAACCAAA | 65.3 ± 5.5% | 54.1 ± 3% | 20.2 ± 1.9% | 24.6 ± 10%
44 | UAGGGAAACAUGUAAACCAAA | 86 ± 14% | 100 ± 11% | 88.3 ± 13% | 60.7 ± 11%

From the supplement of paper PMC6206098
